Source: PubChem BioAssay AID1487 (National Center for Advancing Translational Sciences (NCATS), 2009)
Screen size: about 200,000 compounds; about 25 (0.01%) were called active. Inconclusive results (about 23%) are left out. Calls come from the whole dose curve; as a rule, active = well fitted inhibition curve with a large enough effect in the signal ratio, with a control signal flat (not every such curve was filed as active); inconclusive = small, poorly fitted or top-dose-only effect, or effect the other way, or a change in a side signal; inactive = flat fitted curve, though single readings scatter; the % refers to the signal ratio. The list shows a part of the results, in another mix than the full data.

Assay: qHTS Assay for Modulators of Lamin A Splicing
Conditions: HeLa LMNA splicing GFP/RFP minigene ratio, 48 h; series mostly up to 46.1 µM; ratio change, negative = inhibition: at the top concentration
Procedure, shortened: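 S3 HeLa cells stably expressing lamin A-EGFP splicing minigene plus DsRed2, 600 cells/well, 48 h compound exposure at 37C. Laser-scanning cytometry; analysed as GFP (500-530 nm)/RFP (575-640 nm) total intensity ratio; 0.5% DMSO vehicle.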
% is set by controls: 0 for no effect and ±100 for the full control effect.

Potency, inactive:
CCOC(=O)C1=C(C)NC(C)=C(C(=O)OC)C1c1cccc([N+](=O)[O-])c1 (configuration not stated), OC(CCN1CCCCC1)(c1ccccc1)c1ccccc1, CN1CCN2c3ccccc3Cc3ccccc3C2C1 (configuration not stated), N=c1nc(N2CCCCC2)cc(N)n1O, O=C(O)c1cc2cc(F)ccc2[nH]1

Ratio change, negative = inhibition, inactive:
CC(CN1c2ccccc2Sc2ccccc21)N(C)C (configuration not stated) -1.91%, CC1(C)S[C@H]2C(NC(=O)[C@@H](N)c3ccc(O)cc3)C(=O)N2[C@@H]1C(=O)O (some centres not stated) 0.39%, Cc1ccc(CCNC(=O)CCSCc2ccc(Cl)cc2)cc1 2.25%, O=C(NN1C(=O)C2C3c4ccccc4C(c4ccccc43)C2C1=O)c1ccccc1 (configuration not stated) -18.6%, CC(C)NNC(=O)c1ccncc1 -4.54%, O=C1c2cccc(O)c2C(=O)c2c(O)cccc21 0.537%, COc1ccc(-c2nc3ccccc3s2)cc1NC(C)=O -16.7% [at 46 µM], CC(C)C1=CC2=CCC3[C@@](C)(CCC[C@@]3(C)C(=O)O)C2CC1 (some centres not stated) -8.06%, CN(C)CC[C@@H](c1ccccc1)c1ccccn1 -5.77%, CCCCN(C(=O)Nc1ccc(Cl)cc1)C1CCN(C(C)=O)CC1 8.9%, C[N+](C)(C)CCOC(N)=O -6.41%, COC(=O)[C@H]1C[C@@H]1[C@H](NC(=O)c1ccccc1)c1ccccc1 6.01%, CC(NCCc1ccc(O)cc1)C(O)c1ccc(O)cc1 (configuration not stated) -1.78%, Clc1ccc(C(c2ccccc2Cl)C(Cl)Cl)cc1 (configuration not stated) -10.6%, Nc1[nH]c(=O)ncc1F -3.72%, NCCCS(=O)(=O)O -2.74%, CC(=C/c1ccccc1)/C=N/n1cnnc1 41.4%, C[C@@H](C(=O)Nc1ccc2ccccc2c1)[C@@H]1C[C@@]1(C)[C@@H](NC(=O)c1cccnc1)c1ccccc1 -20.7%, OC(CCN1CCCC1)(c1ccccc1)C1CCCCC1 (configuration not stated) -3.25%, COC(=O)[C@H]1[C@H]2C[C@H]3c4[nH]c5ccccc5c4CCN3C[C@H]2CC[C@@H]1O -12.5%, NC(N)=NC(N)=Nc1ccccc1 4.51%, O=C(NCCO)/C(=C/c1ccc2c(c1)OCO2)NC(=O)c1ccc(Br)cc1 -14.6% [at 46 µM], O=C1N=C(O)CN1/N=C/c1ccc(-c2ccc([N+](=O)[O-])cc2)o1 -23.4%, CCN1CCCC1CNC(=O)c1cc(S(N)(=O)=O)ccc1OC (configuration not stated) -6.32%, Cc1ccc(C(=O)N/C(=C\c2cccs2)C(=O)NCCc2c[nH]c3ccccc23)cc1 -18.5%, CN(C)CCCO[C@H]1C([C@H](O)CO)O[C@@H]2OC(C)(C)O[C@@H]21 (some centres not stated) -18.1%, CCC[C@@H]1C[C@@H](C(=O)N[C@@H]([C@H]2O[C@H](SC)[C@H](O)[C@@H](O)[C@H]2O)[C@@H](C)O)N(C)C1 -29.5%
